These results are taken from article PMC10184318, “The fission yeast cytokinetic ring component Fic1 promotes septum formation” (Biology Open, 2023).

Experiment [1] deals with T1, Cyk3-SH3-GST (aa1-66) (S. pombe) (UniProt O14302).
T1 sequence: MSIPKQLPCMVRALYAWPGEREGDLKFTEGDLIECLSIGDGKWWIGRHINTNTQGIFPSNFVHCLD
The experiment in a line: pull-down; bead-bound Cyk3-SH3-GST recombinant proteins incubated with lysate of cps1-191 fic1-FLAG3 S. pombe cells (36°C for 3 h before lysis); Cyk3 lysis buffer (50 mM Tris pH 7.5, 150 mM NaCl, 1 mM EDTA, 50 mM NaF, 0.5% NP-40, 0.1% SDS, 1 mM DTT); 4°C, 1 h; three washes; anti-FLAG immunoblot; only the target purified. Background: Immunoblotting shows a protein as a band on a membrane.

The target in experiment [2] is T2, Cyk3-SH3-W43S-GST (S. pombe) (UniProt O14302).
T2 sequence: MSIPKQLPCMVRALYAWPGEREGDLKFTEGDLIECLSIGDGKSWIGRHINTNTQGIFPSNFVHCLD
The description is as above.

For experiment [3], the target named is T3, Cdc15 (S. pombe (endogenous in S. pombe cells)) (UniProt Q09822).
T3 sequence: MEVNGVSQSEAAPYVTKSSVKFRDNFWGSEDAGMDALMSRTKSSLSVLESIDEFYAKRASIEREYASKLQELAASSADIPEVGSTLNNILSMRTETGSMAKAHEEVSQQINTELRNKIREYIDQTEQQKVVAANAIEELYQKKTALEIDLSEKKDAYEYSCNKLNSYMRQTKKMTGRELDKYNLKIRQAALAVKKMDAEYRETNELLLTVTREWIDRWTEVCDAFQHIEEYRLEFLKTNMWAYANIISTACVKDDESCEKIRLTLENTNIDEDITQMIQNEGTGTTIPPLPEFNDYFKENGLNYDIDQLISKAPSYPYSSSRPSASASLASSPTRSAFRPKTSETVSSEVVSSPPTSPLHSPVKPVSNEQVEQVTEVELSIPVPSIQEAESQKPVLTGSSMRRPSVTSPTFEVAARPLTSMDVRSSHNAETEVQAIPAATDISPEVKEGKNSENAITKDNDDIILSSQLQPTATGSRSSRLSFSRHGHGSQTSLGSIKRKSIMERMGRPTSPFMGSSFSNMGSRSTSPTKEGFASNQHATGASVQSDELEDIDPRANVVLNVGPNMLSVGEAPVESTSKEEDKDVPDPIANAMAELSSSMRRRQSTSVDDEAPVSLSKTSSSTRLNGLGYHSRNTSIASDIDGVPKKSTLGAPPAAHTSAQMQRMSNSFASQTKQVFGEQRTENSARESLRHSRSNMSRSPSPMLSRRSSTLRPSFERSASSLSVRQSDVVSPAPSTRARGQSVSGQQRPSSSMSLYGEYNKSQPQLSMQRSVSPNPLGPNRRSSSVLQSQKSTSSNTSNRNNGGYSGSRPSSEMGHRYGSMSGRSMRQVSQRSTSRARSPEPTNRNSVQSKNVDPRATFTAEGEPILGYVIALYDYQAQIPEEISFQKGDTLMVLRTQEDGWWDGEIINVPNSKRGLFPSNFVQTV
The experiment can be described thus: co-IP; co-immunoprecipitation with Cdc15 from lysates of S. pombe cells arrested in prometaphase by nda3-KM311.

These are yes or no findings as the source states them, for the method shown. In cells and extracts the contact can be indirect. Some binding calls cover weakened binding; strength is not graded here. For some assays here: Where a sequence is shown, tags or fusion partners need not be part of it.

B1: Fic1-FLAG3 (protein, UniProt O94701 1-272)
chain: MSKNPLGTLVVRIWKAKNLPNKALVGKQSPYCVCRVGEVVKRTQTDKRSGQEPSWNAVLEFNIPSESYHIMKITVFHEGFRKHPHLIGDTVLSFEKAMKEELQSEWYELKNEFQFAGELSVQFKFIPTDPLYFDRASSKPVLQFPYSSVAALTPVPKKPSKPSKPRKKVPVSHPLPPTPPSREEHVSVPRESSLFTYEDDPLPSFPSPYMVDDYYTQDVFVSDNVNDYSYGVQNPTNPRLSVEDYDANHSSLPPVPPPHLILPTASSSQIFH
For B1, the binding entry is reported as “binds” in experiment [1] and “no binding” in experiment [2].

B2: Cyk3-W43S (protein, UniProt O14302 1-886)
chain: MSIPKQLPCMVRALYAWPGEREGDLKFTEGDLIECLSIGDGKSWIGRHINTNTQGIFPSNFVHCLDIPTVRPGSSMSRTSASSFRYSSPQKSSIDTPITSSDQGLTPDLVGSSNALNKPTRESDSLKHQKSHPMLNSLGSSLSLKKSVSRPPSSMSRTNLDVSSRWDNTADNDSQIDAQDLSRSTPSPLRSAMENVLQSLNAMGKKSFSRANSPLLRLTKSTTTSKETDFIPVPPAHGSTSMTSRSKLDDSTDNSSKPRTSLQPGESPMKSSRDISRKPSMASSVLSPSDYFPQHRRFQSAPAPIPRPVSTLIPLTQVRTTASNVIKPRPQTTERPSTAQSFRKGGGFLKKTFKKLLRRGSSKRKPSLQPTPPVSYPAHNVPQKGVRPASPHTLKSVKDDLKRTKTYTKAEFAAKREEIFNKLSMPVYEPLKDLSECIGNVLADGEPVQFSVGTNIHNMNFSAIDKQIRSIIPQRVQVSPAVLAKNYLAPGQTTALAQMRAVFIYISERITFTNQTLDNDELRTSTQVISEGQGTPFEVALLVKEMLQALDLWCEVIEGYLKSPDDIYYTRDININHAWNVVTFDNEVRLIDASFASPTHPQQALKSSSSNDFYFLMKPNECIFTHVPENPDQQFIMPDLSMPIVMALPWVSSVYFTLGLKLRKFNTSILHLNDLEVLQIEFLAPKDIECVAEVDALSALAPTADVSQCYKYTLTQAFWETPDIRVMRVKAVMPANNRAAVLRIYAGRLGVSSPVRTAPHPMAMSLPFVHHGKNKALEFVTRHPVPHCPSVDLYINSPQCGTLHSGVEYKFNVSAYACQPSTSISNTRLAIQTPTGNIVRLREERSGNGVIFFSLSLTINETGEYRALILAEKIGRWVVYATWQAV
In the case of B2, the binding entry in experiment [3] is recorded as “binds”.

B3: Cyk3 (protein, UniProt O14302 1-886)
chain: MSIPKQLPCMVRALYAWPGEREGDLKFTEGDLIECLSIGDGKWWIGRHINTNTQGIFPSNFVHCLDIPTVRPGSSMSRTSASSFRYSSPQKSSIDTPITSSDQGLTPDLVGSSNALNKPTRESDSLKHQKSHPMLNSLGSSLSLKKSVSRPPSSMSRTNLDVSSRWDNTADNDSQIDAQDLSRSTPSPLRSAMENVLQSLNAMGKKSFSRANSPLLRLTKSTTTSKETDFIPVPPAHGSTSMTSRSKLDDSTDNSSKPRTSLQPGESPMKSSRDISRKPSMASSVLSPSDYFPQHRRFQSAPAPIPRPVSTLIPLTQVRTTASNVIKPRPQTTERPSTAQSFRKGGGFLKKTFKKLLRRGSSKRKPSLQPTPPVSYPAHNVPQKGVRPASPHTLKSVKDDLKRTKTYTKAEFAAKREEIFNKLSMPVYEPLKDLSECIGNVLADGEPVQFSVGTNIHNMNFSAIDKQIRSIIPQRVQVSPAVLAKNYLAPGQTTALAQMRAVFIYISERITFTNQTLDNDELRTSTQVISEGQGTPFEVALLVKEMLQALDLWCEVIEGYLKSPDDIYYTRDININHAWNVVTFDNEVRLIDASFASPTHPQQALKSSSSNDFYFLMKPNECIFTHVPENPDQQFIMPDLSMPIVMALPWVSSVYFTLGLKLRKFNTSILHLNDLEVLQIEFLAPKDIECVAEVDALSALAPTADVSQCYKYTLTQAFWETPDIRVMRVKAVMPANNRAAVLRIYAGRLGVSSPVRTAPHPMAMSLPFVHHGKNKALEFVTRHPVPHCPSVDLYINSPQCGTLHSGVEYKFNVSAYACQPSTSISNTRLAIQTPTGNIVRLREERSGNGVIFFSLSLTINETGEYRALILAEKIGRWVVYATWQAV
Consider B3, for which the binding result in experiment [3] was “binds”.

B4: Cyk3-H577A (protein, UniProt O14302 1-886)
chain: MSIPKQLPCMVRALYAWPGEREGDLKFTEGDLIECLSIGDGKWWIGRHINTNTQGIFPSNFVHCLDIPTVRPGSSMSRTSASSFRYSSPQKSSIDTPITSSDQGLTPDLVGSSNALNKPTRESDSLKHQKSHPMLNSLGSSLSLKKSVSRPPSSMSRTNLDVSSRWDNTADNDSQIDAQDLSRSTPSPLRSAMENVLQSLNAMGKKSFSRANSPLLRLTKSTTTSKETDFIPVPPAHGSTSMTSRSKLDDSTDNSSKPRTSLQPGESPMKSSRDISRKPSMASSVLSPSDYFPQHRRFQSAPAPIPRPVSTLIPLTQVRTTASNVIKPRPQTTERPSTAQSFRKGGGFLKKTFKKLLRRGSSKRKPSLQPTPPVSYPAHNVPQKGVRPASPHTLKSVKDDLKRTKTYTKAEFAAKREEIFNKLSMPVYEPLKDLSECIGNVLADGEPVQFSVGTNIHNMNFSAIDKQIRSIIPQRVQVSPAVLAKNYLAPGQTTALAQMRAVFIYISERITFTNQTLDNDELRTSTQVISEGQGTPFEVALLVKEMLQALDLWCEVIEGYLKSPDDIYYTRDININAAWNVVTFDNEVRLIDASFASPTHPQQALKSSSSNDFYFLMKPNECIFTHVPENPDQQFIMPDLSMPIVMALPWVSSVYFTLGLKLRKFNTSILHLNDLEVLQIEFLAPKDIECVAEVDALSALAPTADVSQCYKYTLTQAFWETPDIRVMRVKAVMPANNRAAVLRIYAGRLGVSSPVRTAPHPMAMSLPFVHHGKNKALEFVTRHPVPHCPSVDLYINSPQCGTLHSGVEYKFNVSAYACQPSTSISNTRLAIQTPTGNIVRLREERSGNGVIFFSLSLTINETGEYRALILAEKIGRWVVYATWQAV
Take B4: in experiment [3], the binding entry is listed as “binds”.
